The other results are listed elsewhere or left out. The energies were worked out here from pooled read counts, against the library average; single values are noisy.

In the experiment the target is T1, Pho4 (S. cerevisiae) (UniProt P07270).
T1 sequence: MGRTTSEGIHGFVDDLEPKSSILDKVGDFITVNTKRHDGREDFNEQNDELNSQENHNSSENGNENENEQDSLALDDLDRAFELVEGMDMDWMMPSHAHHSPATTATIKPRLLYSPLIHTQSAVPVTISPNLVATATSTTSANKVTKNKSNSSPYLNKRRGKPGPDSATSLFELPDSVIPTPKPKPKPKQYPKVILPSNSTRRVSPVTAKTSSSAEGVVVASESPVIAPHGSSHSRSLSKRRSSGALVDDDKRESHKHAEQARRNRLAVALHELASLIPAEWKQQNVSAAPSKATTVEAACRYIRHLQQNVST
In words: relative binding free energy (BET-seq); higher = weaker binding. The conditions noted are these: reference: library average.
TGGGTCACGTGGGTCG: the “relative binding free energy” value was 0.01 kcal/mol.

In the case of CGTAGCACGTGTGGGG, the “relative binding free energy” value was -0.06 kcal/mol.

For GGAGACACGTGTGAGT, the “relative binding free energy” value is 0.13 kcal/mol.

On to CGTAGCACGTGGGCAG, for which the “relative binding free energy” value is -0.18 kcal/mol.

Regarding GGTTTCACGTGTCGTC, the “relative binding free energy” value came to 0.37 kcal/mol.

Take TAATTCACGTGTGGAG: the “relative binding free energy” value came out at 0.32 kcal/mol.

Regarding TGCATCACGTGTGGTC, the “relative binding free energy” value amounted to 0.27 kcal/mol.

For the sequence TATAGCACGTGGACGG, the “relative binding free energy” value is -0.17 kcal/mol.

As to AATGTCACGTGGGTAT, the “relative binding free energy” value worked out at 0.1 kcal/mol.

For the sequence TATTTCACGTGATATG, the “relative binding free energy” value worked out at 0.32 kcal/mol.

In the case of ATTCTCACGTGTGTCT, the “relative binding free energy” value was found to be 0.24 kcal/mol.

ATTTGCACGTGTGCTA: the “relative binding free energy” value stood at 0.01 kcal/mol.

Take GGTAGCACGTGTGAGG: the “relative binding free energy” value is -0.02 kcal/mol.

As for TAGGCCACGTGATGTG, the “relative binding free energy” value came out at 0.08 kcal/mol.

Regarding CTGTTCACGTGTTATT, the “relative binding free energy” value came out at 0.17 kcal/mol.

Regarding GATAGCACGTGGGGAG, the “relative binding free energy” value was 0.05 kcal/mol.

AATTGCACGTGATCGT: the “relative binding free energy” value is -0.06 kcal/mol.

TCTTTCACGTGATATT: the “relative binding free energy” value turned out to be 0.35 kcal/mol.

Take TTGTGCACGTGAATGG: the “relative binding free energy” value amounted to 0.23 kcal/mol.

Consider CCGCGCACGTGGGGGG, for which the “relative binding free energy” value was -0.32 kcal/mol.

As for AGTCCCACGTGTTTGT, the “relative binding free energy” value is 0.08 kcal/mol.

AGGCTCACGTGGGTGA: the “relative binding free energy” value turned out to be 0.05 kcal/mol.

In the case of GTATGCACGTGCGTAT, the “relative binding free energy” value is -0.01 kcal/mol.

As for GACTGCACGTGGGGAG, the “relative binding free energy” value was -0.01 kcal/mol.

ATGATCACGTGCCGGT: the “relative binding free energy” value was 0.22 kcal/mol.

Take TGTGCCACGTGCGGGA: the “relative binding free energy” value was -0.15 kcal/mol.

In the case of GAGTACACGTGCGGGG, the “relative binding free energy” value was 0.14 kcal/mol.

Consider TTCAACACGTGGTGGT, for which the “relative binding free energy” value is -0.1 kcal/mol.

As to TCATGCACGTGGGAGG, the “relative binding free energy” value was -0.12 kcal/mol.

Turning to AAGGGCACGTGTGCTT, the “relative binding free energy” value is -0.11 kcal/mol.

As for GCTTGCACGTGCAGGT, the “relative binding free energy” value came out at 0.13 kcal/mol.

For the sequence GGGTTCACGTGGCTGG, the “relative binding free energy” value came to 0.29 kcal/mol.

On to ACGTGCACGTGGTGCT, for which the “relative binding free energy” value is -0.13 kcal/mol.

TGTTACACGTGGATAT: the “relative binding free energy” value came out at 0.06 kcal/mol.

Regarding AGGTACACGTGGGGAC, the “relative binding free energy” value was found to be 0.01 kcal/mol.

For TTGTACACGTGGACGT, the “relative binding free energy” value was determined as 0.02 kcal/mol.

Regarding TTATGCACGTGTGGGG, the “relative binding free energy” value is -0.02 kcal/mol.

In the case of TCTTTCACGTGGTAAT, the “relative binding free energy” value is 0.2 kcal/mol.

For the sequence AGTACCACGTGAGGTG, the “relative binding free energy” value turned out to be 0.14 kcal/mol.

For GAGGTCACGTGGTTAG, the “relative binding free energy” value worked out at 0.07 kcal/mol.

In the case of AGATTCACGTGGCTTT, the “relative binding free energy” value amounted to 0.29 kcal/mol.

As to CGGGTCACGTGTTGCG, the “relative binding free energy” value was determined as 0.27 kcal/mol.

For TGTAGCACGTGGGGAA, the “relative binding free energy” value is -0.09 kcal/mol.

Turning to ACTCGCACGTGAGTGG, the “relative binding free energy” value amounted to 0.18 kcal/mol.

CTATTCACGTGAGTAT: the “relative binding free energy” value worked out at 0.47 kcal/mol.

Take TTGAGCACGTGGAATA: the “relative binding free energy” value was 0.02 kcal/mol.

In the case of GGGGCCACGTGGGAAG, the “relative binding free energy” value is -0.32 kcal/mol.

For TACTACACGTGGGGGG, the “relative binding free energy” value was -0.07 kcal/mol.

On to TCGGGCACGTGAAGGT, for which the “relative binding free energy” value turned out to be 0.22 kcal/mol.

Take TGGAGCACGTGGGTTT: the “relative binding free energy” value was -0.04 kcal/mol.

On to AAGTTCACGTGACTGT, for which the “relative binding free energy” value stood at 0.42 kcal/mol.

Regarding ATTAACACGTGTTGCT, the “relative binding free energy” value is -0.13 kcal/mol.

Regarding GGATACACGTGTTCGT, the “relative binding free energy” value came to 0.04 kcal/mol.

Regarding GGTTGCACGTGTGAGT, the “relative binding free energy” value is 0.11 kcal/mol.

On to TCCGTCACGTGGTAGG, for which the “relative binding free energy” value came to 0.01 kcal/mol.

GGATGCACGTGAAGTG: the “relative binding free energy” value was determined as 0.19 kcal/mol.

Consider AAACGCACGTGAGGTT, for which the “relative binding free energy” value is 0.24 kcal/mol.

ATGTTCACGTGGCAAG: the “relative binding free energy” value worked out at 0.16 kcal/mol.

For the sequence GACATCACGTGTTTTT, the “relative binding free energy” value is 0.24 kcal/mol.

In the case of TTAGACACGTGGCTAG, the “relative binding free energy” value amounted to 0.1 kcal/mol.

Regarding TGGGTCACGTGGGGAC, the “relative binding free energy” value was determined as 0.07 kcal/mol.

In the case of GGTATCACGTGAAGTG, the “relative binding free energy” value is 0.24 kcal/mol.

Turning to ATAGGCACGTGGATCG, the “relative binding free energy” value was -0.05 kcal/mol.

For the sequence GGCTTCACGTGGTTTG, the “relative binding free energy” value worked out at 0.37 kcal/mol.

Take TATGGCACGTGTCAGA: the “relative binding free energy” value is -0.03 kcal/mol.

Turning to AATTTCACGTGGGTAG, the “relative binding free energy” value was -0.01 kcal/mol.

As for TTTATCACGTGAATCG, the “relative binding free energy” value turned out to be 0.4 kcal/mol.

Regarding ACCGGCACGTGTGTGG, the “relative binding free energy” value was -0.09 kcal/mol.

For the sequence GGGTACACGTGATATA, the “relative binding free energy” value stood at 0.11 kcal/mol.

With TAGGTCACGTGGAACT, the “relative binding free energy” value stood at 0.19 kcal/mol.

GCAGGCACGTGTTGCG: the “relative binding free energy” value was -0.05 kcal/mol.

Turning to TTGTACACGTGGAATG, the “relative binding free energy” value amounted to 0.08 kcal/mol.

In the case of ATCTGCACGTGGGATA, the “relative binding free energy” value is -0.1 kcal/mol.

For TCTGGCACGTGTCGTT, the “relative binding free energy” value was -0.12 kcal/mol.

Consider CTATACACGTGTGTTG, for which the “relative binding free energy” value is -0.1 kcal/mol.

TGTGGCACGTGTCCTG: the “relative binding free energy” value is -0.18 kcal/mol.

For AGTAACACGTGTGTTG, the “relative binding free energy” value came out at 0.04 kcal/mol.

For ATAGGCACGTGACGGG, the “relative binding free energy” value was -0.02 kcal/mol.

As for GTTATCACGTGAGGGG, the “relative binding free energy” value was 0.33 kcal/mol.

For the sequence GAGCGCACGTGGGGGT, the “relative binding free energy” value is -0.27 kcal/mol.

Consider GGTGTCACGTGCGTAG, for which the “relative binding free energy” value was 0 kcal/mol.

Turning to CGAGTCACGTGGGCTT, the “relative binding free energy” value worked out at 0 kcal/mol.

For GAGTTCACGTGGATTA, the “relative binding free energy” value was 0.33 kcal/mol.

Turning to CGTTTCACGTGAGAGT, the “relative binding free energy” value was 0.39 kcal/mol.

Turning to CTGGGCACGTGGTTCG, the “relative binding free energy” value was -0.06 kcal/mol.

For AGGGGCACGTGGGTAT, the “relative binding free energy” value is -0.18 kcal/mol.

Turning to TGTGTCACGTGCGAGG, the “relative binding free energy” value was -0.06 kcal/mol.

In the case of TGGAGCACGTGCTTCG, the “relative binding free energy” value was -0.01 kcal/mol.

AGAGGCACGTGGTTGA: the “relative binding free energy” value was -0.01 kcal/mol.

With AGTGGCACGTGAGTAT, the “relative binding free energy” value turned out to be 0.18 kcal/mol.

For the sequence TGAGGCACGTGAAAGT, the “relative binding free energy” value was found to be 0.21 kcal/mol.

Take CATGTCACGTGGTCAG: the “relative binding free energy” value was 0.07 kcal/mol.

In the case of CTGTGCACGTGTGCTG, the “relative binding free energy” value is -0.02 kcal/mol.

For the sequence GGGGGCACGTGATGAA, the “relative binding free energy” value came out at 0.08 kcal/mol.

Regarding GCGGACACGTGTATTG, the “relative binding free energy” value came to 0.15 kcal/mol.

In the case of ATGGGCACGTGCGAAG, the “relative binding free energy” value was -0.08 kcal/mol.

On to TCAGTCACGTGGGGGC, for which the “relative binding free energy” value was found to be 0.02 kcal/mol.

On to TTCATCACGTGTGGTT, for which the “relative binding free energy” value was 0.29 kcal/mol.

With TGAGGCACGTGGATGT, the “relative binding free energy” value was 0.1 kcal/mol.

On to GCATGCACGTGTGTTT, for which the “relative binding free energy” value turned out to be 0.08 kcal/mol.

Consider TATATCACGTGTGGAC, for which the “relative binding free energy” value stood at 0.18 kcal/mol.

For the sequence GGGTGCACGTGGACTG, the “relative binding free energy” value was found to be 0.05 kcal/mol.

For TTGGTCACGTGTAAGG, the “relative binding free energy” value was 0.26 kcal/mol.

As for AAGGGCACGTGAGATG, the “relative binding free energy” value was -0.01 kcal/mol.

For the sequence GAGTTCACGTGATCGT, the “relative binding free energy” value turned out to be 0.42 kcal/mol.

For the sequence TAAGTCACGTGCTTGG, the “relative binding free energy” value stood at 0.12 kcal/mol.

Take CTTAGCACGTGTGAAG: the “relative binding free energy” value turned out to be 0.02 kcal/mol.

Regarding TGTTGCACGTGGTGAA, the “relative binding free energy” value came out at 0.02 kcal/mol.

Consider AAAGTCACGTGTATAA, for which the “relative binding free energy” value is 0.17 kcal/mol.

For the sequence GGATCCACGTGGATGT, the “relative binding free energy” value turned out to be 0.1 kcal/mol.

Regarding TAGAGCACGTGTGGAT, the “relative binding free energy” value is -0.01 kcal/mol.

Take TTTGCCACGTGGTCTT: the “relative binding free energy” value is -0.18 kcal/mol.

As to AGATGCACGTGTACTG, the “relative binding free energy” value was 0.09 kcal/mol.

As to GTTCACACGTGTTTTT, the “relative binding free energy” value was found to be 0.22 kcal/mol.

GAAGCCACGTGGGGGT: the “relative binding free energy” value was -0.24 kcal/mol.
